Results taken from PubChem BioAssay AID1159614 (National Center for Advancing Translational Sciences (NCATS), 2016).
About 65 (0.1%) of roughly 45,000 compounds were called active. Calls come from the whole dose curve; as a rule, active = well fitted activation curve with a large enough effect; inconclusive = small, poorly fitted or top-dose-only effect; inactive = no such curve, though single readings can be large or run the other way. This is one part of the list.

These molecules were tested against Galactocerebrosidase (Homo sapiens) (UniProt P54803) (assay: A Novel Cell-Based Assay to Identify Small Molecules for B -Galactocerebrosidase). Settings: 145M-Twi-hGALC-G270D cells, HMU-beta-Gal fluorescence, 48 h; series mostly up to 57.5 µM; activation: at the top concentration.
UniProt P54803, sequence (P54803 whole entry, looked up): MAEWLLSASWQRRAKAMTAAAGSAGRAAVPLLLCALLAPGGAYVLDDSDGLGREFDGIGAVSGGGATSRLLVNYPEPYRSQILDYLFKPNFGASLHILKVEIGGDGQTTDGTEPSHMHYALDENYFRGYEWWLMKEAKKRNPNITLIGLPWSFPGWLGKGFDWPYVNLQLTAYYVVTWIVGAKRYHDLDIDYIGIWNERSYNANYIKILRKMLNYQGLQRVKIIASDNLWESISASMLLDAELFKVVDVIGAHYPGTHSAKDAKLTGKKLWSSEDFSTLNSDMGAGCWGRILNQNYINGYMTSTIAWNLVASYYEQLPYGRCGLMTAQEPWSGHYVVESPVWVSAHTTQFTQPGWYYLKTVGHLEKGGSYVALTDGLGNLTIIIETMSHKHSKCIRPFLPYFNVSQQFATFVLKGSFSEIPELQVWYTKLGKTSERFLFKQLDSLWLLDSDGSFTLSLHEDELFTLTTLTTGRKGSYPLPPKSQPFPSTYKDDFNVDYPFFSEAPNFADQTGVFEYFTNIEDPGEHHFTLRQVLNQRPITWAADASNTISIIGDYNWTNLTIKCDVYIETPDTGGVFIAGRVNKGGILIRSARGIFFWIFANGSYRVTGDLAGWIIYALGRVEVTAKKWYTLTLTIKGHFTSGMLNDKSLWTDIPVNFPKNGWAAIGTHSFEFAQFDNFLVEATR
Procedure, shortened: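 qHTS, 1536-well; 145M-Twi-hGALC-G270D cells (WT line also made) in DMEM/F12 + 10% FBS; compound incubation on live cells; HMU-β-gal 0.1 mM final, pH 5.2, NaTC; carbonate stop; fluorescence increase = enhanced residual activity.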
Note: 0% is about no effect; nearly all actives have a fitted effect of over 65% in size.

activation, inactive:
Cc1ccc(NC(=O)COc2ccc3oc4c(c3c2)CCCC4)c(C)c1 -14.2%, CN(C)c1ccc(-c2nc(-c3ccccn3)no2)cc1[N+](=O)[O-] -44%, Cc1ccc(CCNC(=O)Cn2nc(C)c3c(C)n(-c4ccc(C)cc4)nc3c2=O)cc1 3.39%, O=C(NCc1ccccc1Cl)c1ccc(CSCc2ccccc2Cl)o1 -10.4%, COc1ccc(OC)c(NC(=O)CSc2nnc3ccc4ccccc4n23)c1 -15%, Cc1ccc(CSc2nnc(CCNC(=O)OC(C)(C)C)o2)cc1 -1.55%, Cc1ccc(-n2ncc(C(=O)NCc3cccs3)c2C2CCN(C(=O)OC(C)(C)C)CC2)c(C)c1 -17.2%, COc1ccc(NC(=O)C2=C(C)Nc3nc(SCc4ccccc4C)nn3C2c2cc(OC)c(O)c(OC)c2)cc1 (configuration not stated) -9.91%, CCC(Sc1nc2cc(OC)c(OC)cc2c2nc(-c3ccccc3)nn12)C(=O)Nc1cccc(C)c1 (configuration not stated) -19.1%, CN(Cc1ccccc1)C(=O)Nc1ccc2c(c1)N(C)C(=O)c1ccccc1S2 -19.3%, COc1ccccc1OC(C)C(=O)Nc1ccc(-c2nc3ccccc3s2)cc1 (configuration not stated) 4.3%, COc1ccc(-c2noc(CC(=O)Nc3ccc(F)cc3F)n2)cc1 -13.5%, Cc1ccc(-c2nnc(Nc3cccc(O)c3)c3ccccc23)cc1S(=O)(=O)N1CCOCC1 -19.7%, CCc1ccc(NC(=O)CCn2nc(-c3ccccc3OC)c3c(C)cc(C)nc32)cc1 -6.19%, COc1ccc(NC(=O)CCn2c(=O)c3cccn3c3cccnc32)c(OC)c1 0.697%, CCC(C(=O)NCc1ccccc1)n1nc(C)c2sc3ccccc3c2c1=O (configuration not stated) -7.45%, CC(C)Nc1ccc(-c2nc(-c3ccco3)no2)cc1[N+](=O)[O-] -7.17%, Cc1ccc(C2c3[nH]c4ccccc4c3CCN2C(=O)c2cccc(C)c2)cc1 (configuration not stated) -1.24%, CCC(C)NC(=O)c1ccccc1NC(=O)CN1C(=O)c2cccc3cccc1c23 (configuration not stated) 0.512%, CC(C)CCOC(=O)c1ccc(N(C)C)cc1 -21.6%, Cc1ccc2nc(N3CCC(C(=O)N4CCN(c5cccc(Cl)c5)CC4)CC3)[nH]c2c1 -5.53%, CCOCCCNC(=O)C(c1ccc(C)cc1)N(Cc1ccc2c(c1)OCO2)C(=O)c1ccc(NC(C)=O)cc1 (configuration not stated) 0.845%, COc1ccc(-c2cc(C(=O)OC(C)C(=O)c3ccccc3)c3cccc(Cl)c3n2)cc1 (configuration not stated) -15.8%, c1ccc(Nc2c(-c3c[nH]c4ccccc34)nc3ccccn23)cc1 -4.7%, Cc1cccc(NC(=O)c2nnn(CC(=O)Nc3ccc(C(C)C)cc3)c2N)c1C -16.1%, COc1cc2cc(CNc3ccc(C)cc3)c(=O)n(CC(=O)Nc3ccc(F)cc3F)c2cc1OC -33.4%, COc1cc(C(=O)NCC(c2cccs2)S(=O)(=O)c2ccc(F)cc2)cc(OC)c1OC (configuration not stated) 6.29%, CCOC(=O)c1c(C)[nH]c(CCC(=O)Nc2ccc(C)c(F)c2)c1C -18.2%, CC(C)NC(=O)CN1C(=O)COc2ccc(S(=O)(=O)N3CCCCCC3)cc21 0.252%, CC1CC(OC(=O)C(O)c2ccccc2)CC(C)(C)N1C (configuration not stated) -17.2%, Cc1cccc(OCC(=O)Nc2ccc(Cl)c(-c3nc4ncccc4o3)c2)c1C 6.41%, CCOc1ccccc1NC(=O)CN(C)S(=O)(=O)c1ccc2nc(C)sc2c1 -6%, Cc1nc(Oc2ccc(F)cc2Cl)c2oc3ccccc3c2n1 -16.5%, CCC(=O)N1CCc2cc(Br)cc(S(=O)(=O)CCC(=O)NCc3ccc(Cl)cc3)c21 -14.7%, Cc1ccc(C)c(NC(=O)CN2C(=O)C(C)(C)c3ccccc32)c1 -24.9%, O=C(Nc1sc2c(c1C(=O)NCc1ccco1)CCCC2)c1cc(=O)c2ccccc2o1 -14.4%, COc1ccc(Br)cc1CNC(=O)c1cc2n(n1)CCCN(Cc1ccc(C)cc1)C2=O -4.8%, Cc1ccc(NC(=O)CCc2nnc3n(C)c(=O)c4sccc4n23)cc1C -4.84%, CSC1=NC2(CCN(C(=O)NC3CCCCC3)CC2)N=C1c1ccc(C)c(C)c1 3.86%, Cc1ccc(CNC(=O)CC(C)S(=O)(=O)c2cc3c(cc2C)NC(=O)CO3)cc1 (configuration not stated) -8.38%, CC(C)Oc1ccc(C(=O)N(Cc2ccco2)c2ccccn2)cc1 -15.1%, COC(=O)c1scc(-c2ccc(C)cc2)c1S(=O)(=O)N1CCN(c2cccc(OC)c2)CC1 -11.3%, Cc1ccc(Sc2c(C)nn(C(C)(C)C)c2OC(=O)C(C)(C)C)cc1 -20%, CCc1nnc(SC(CC)C(=O)Nc2cccc(OC)c2)c2cc3oc(C)cc3n12 (configuration not stated) -6.61%, Fc1ccc(Nc2c3c(nc4ccccc24)CCC3)cc1 -9.75%, CCc1ccc(CN(Cc2ccco2)c2cnc(S(C)(=O)=O)nc2C(=O)Nc2ccccc2Cl)cc1 -2.83%, CCN(C(=O)C1CCCN(S(=O)(=O)c2c(C)noc2/C=C/N(C)C)C1)c1cccc(C)c1 (configuration not stated) -11%, CCN(c1ccccc1)c1nnc(NC(=O)Nc2ccccc2F)s1 -11.4%, Cc1ccc(NC(=O)Nc2ccc3snnc3c2)cc1C -31.9%, O=C(NCc1ccco1)c1ccc2c(c1)N(Cc1ccc(Cl)cc1)C(=O)c1ccccc1S2=O (configuration not stated) -5.86%, CCOC(=O)c1ccc(NC(=O)CC2C(=O)OCCN2CC)cc1 (configuration not stated) -4.55%, Cc1cccc(Cn2c(SCc3ccc(C(=O)NCCc4ccccc4)cc3)nc3ccncc32)c1 4.6%, CCc1cccc(C)c1NC(=O)Cn1ccn(-c2cccc(OC)c2)c(=O)c1=O -10%, O=C(CCc1nc(CN2CCN(S(=O)(=O)c3ccc(Cl)cc3)CC2)no1)N1CCCCC1 -17.3%, O=C(CCC1N=C2c3ccccc3N=C(SCc3ccc(F)cc3)N2C1=O)NCc1ccc(F)cc1 (configuration not stated) -1.08%, COc1ccc(-c2cc3nc(C)c(CCC(=O)Nc4ccccc4C(C)=O)c(C)n3n2)c(OC)c1 -28.9%, COc1ccc(-n2c(=O)c3c(c4cc(OC)ccc4n3C)n(Cc3cccc(OC)c3)c2=O)cc1 6.87%, CCCC1=Nc2cc(C(=O)NCc3ccc(OC)cc3)ccc2Sc2ccc(C)cc21 -25%, Fc1cccc(-n2ncc3c2ncn2nc(COc4ccc(Cl)cc4)nc32)c1 -6.56%, O=C(CSCc1cccc(F)c1)NCc1ccccc1 6.64%, O=C(NCCc1c[nH]c2ccccc12)c1cccnc1 -17.6%, CN1CCc2c(sc3c2C(=O)NC(c2ccc(OC(=O)c4ccc(C(C)(C)C)cc4)cc2)N3)C1 (configuration not stated) -6.12%
